Here are results for 172 sequences from paper PMC4242493.

The other results are listed elsewhere or left out. The list includes weakly bound sequences.

This assay addresses MaxL homodimer (UniProt P61244). The assay is described as follows: universal protein-binding microarray (PBM). Particulars: PBS-based mixture, 10 nM His-tagged protein dimer, 2% milk, 200 ng/uL BSA, 50 ng/uL salmon testes DNA, 0.02% TX-100; detection with Alexa 488 anti-His …; high values mean tight binding; most listed sequences are background and not binding sites; double strand, one strand shown.
Chain of UniProt P61244 (P61244 whole entry): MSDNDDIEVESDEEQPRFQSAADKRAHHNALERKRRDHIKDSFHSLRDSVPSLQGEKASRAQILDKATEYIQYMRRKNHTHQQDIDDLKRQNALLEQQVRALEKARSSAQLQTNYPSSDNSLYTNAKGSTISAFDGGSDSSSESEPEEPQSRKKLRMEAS
On to GCGCGGGA, for which the binding signal (normalized occupancy) stood at 0.0774. In the case of ACGCTGCA, the binding signal (normalized occupancy) worked out at 0.0799.

Consider AACCTTAA, for which the binding signal (normalized occupancy) worked out at 0.073. For ACGAGAGG the value was 0.0776; for TCATCCAA, 0.0765. With AGTCTGGA the figure was 0.0718; with CGCAACTA, 0.0738; with CATCCTAA, 0.0751. Consider ATCAACGG, for which the binding signal (normalized occupancy) turned out to be 0.0738. With CACCCCGA the figure was 0.0805. For GGTGATTA, the binding signal (normalized occupancy) was determined as 0.0785. Turning to AATAAGGA, the binding signal (normalized occupancy) came to 0.0732.

GCATCAGA: the binding signal (normalized occupancy) worked out at 0.0785. With GCCAAGGA the figure was 0.0765. With ACACGCCC the figure was 0.0863. With AAGGTGAC, the binding signal (normalized occupancy) stood at 0.0729.

CGTACCGA: the binding signal (normalized occupancy) was found to be 0.0728. For ATCTCCCG the value was 0.0753. For TAGGGGAA the value was 0.0817.

Take GAGACGGA: the binding signal (normalized occupancy) worked out at 0.07.

Regarding AGCTCGGG, the binding signal (normalized occupancy) was 0.0612. For the sequence CCAAACTC, the binding signal (normalized occupancy) was found to be 0.0694.

For the sequence TCTTCTAA, the binding signal (normalized occupancy) was determined as 0.0702.

As for CCACTGGG, the binding signal (normalized occupancy) came to 0.0736.

Consider TAATGTGA, for which the binding signal (normalized occupancy) worked out at 0.0848. With ACGGGATA, the binding signal (normalized occupancy) was found to be 0.0871. For AAACCGGG the value was 0.0705; for AAACGACC, 0.0727.

Regarding GGAGGAAC, the binding signal (normalized occupancy) was determined as 0.0791.

Turning to CAACCGCA, the binding signal (normalized occupancy) amounted to 0.0728. Regarding CATGAAGC, the binding signal (normalized occupancy) was 0.0755. On to TAGAGAGA, for which the binding signal (normalized occupancy) worked out at 0.071. For CATCTTCC the value was 0.0775. For CATAACTC, the binding signal (normalized occupancy) was found to be 0.0771. For CGACTGGA, the binding signal (normalized occupancy) worked out at 0.0706.

On to CCGAGAAA, for which the binding signal (normalized occupancy) came out at 0.071. As for ATCGTCCA, the binding signal (normalized occupancy) turned out to be 0.0745. For AGTATCTA the value was 0.0824. With ATGAGTTC the figure was 0.0819; with GCTCTTCC, 0.0706; with CGGAGGGA, 0.0665. Take ATGTCTGC: the binding signal (normalized occupancy) stood at 0.0782.

With AAATCTAT, the binding signal (normalized occupancy) was 0.0777.

Turning to GTAGGGTA, the binding signal (normalized occupancy) was determined as 0.0807.

Regarding GGAGTTAC, the binding signal (normalized occupancy) was determined as 0.075. As to GTCTATCA, the binding signal (normalized occupancy) was 0.0857.

With CTCCGTCA, the binding signal (normalized occupancy) is 0.0718. As for CCTACTAG, the binding signal (normalized occupancy) amounted to 0.0712. Turning to AGGTCTCA, the binding signal (normalized occupancy) stood at 0.074. For CACGAGAG the value was 0.0911. For GGGGCTCA the value was 0.0743; for ACCAGCGC, 0.0713; for AGCTAGAG, 0.0694. For AGGGCTAT, the binding signal (normalized occupancy) was determined as 0.0761. For ACGGGCCC the value was 0.0639; for ACAACCTA, 0.076. With ACGGCGAC, the binding signal (normalized occupancy) came to 0.0651. GGGAGCGA: the binding signal (normalized occupancy) was 0.0724. With AGTCTCAA the figure was 0.0716. With CCTAGAAG the figure was 0.0686. With GCTATAGA the figure was 0.0771; with AAAACCCC, 0.0798; with ACAGTAAT, 0.0765. Regarding GCGGTAGA, the binding signal (normalized occupancy) is 0.0771. Regarding ATACCCAT, the binding signal (normalized occupancy) amounted to 0.0837. Take AACGATCC: the binding signal (normalized occupancy) worked out at 0.0787. For CGGGGGAC the value was 0.0762. For GATCGTTA the value was 0.0767; for CGTGCGAA, 0.0817. On to TATTCCCA, for which the binding signal (normalized occupancy) turned out to be 0.0758.

CCGGTGAG: the binding signal (normalized occupancy) worked out at 0.0746. For CTTCTACC the value was 0.0705. With AACAGATA the figure was 0.0792; with TCGAACAA, 0.0689; with GAGCAAAC, 0.0788. For the sequence CGGAAGCA, the binding signal (normalized occupancy) is 0.0716.

Turning to CAGCCATG, the binding signal (normalized occupancy) came out at 0.0844.

Turning to AATATATG, the binding signal (normalized occupancy) came to 0.0848. For GGGCGAAA, the binding signal (normalized occupancy) is 0.068. On to ACGCTAGC, for which the binding signal (normalized occupancy) was determined as 0.0727. For AACACCTC the value was 0.0797; for ATCTGCTG, 0.0748. With CGTTGACA the figure was 0.0797; with CCCTTAGC, 0.0721.

For the sequence AGTCTCCG, the binding signal (normalized occupancy) came out at 0.07. With CAATGTGG the figure was 0.097; with CCGTCATC, 0.0727. For CGTTCACC the value was 0.0783; for TGAAGGCA, 0.0752. TGACCAAA: the binding signal (normalized occupancy) came to 0.0716. As for CTAAACGA, the binding signal (normalized occupancy) was 0.0709. In the case of ACCCACAT, the binding signal (normalized occupancy) is 0.0932.

Take CGCCAAGC: the binding signal (normalized occupancy) was 0.0736.

AAGTATAG: the binding signal (normalized occupancy) amounted to 0.0813.

Turning to CCCTAGAC, the binding signal (normalized occupancy) amounted to 0.0788. As to ACTGTTCG, the binding signal (normalized occupancy) worked out at 0.0699. Turning to CCCTGCCA, the binding signal (normalized occupancy) came out at 0.0784. With ACATGGGA the figure was 0.0901. As to GCGGCATA, the binding signal (normalized occupancy) amounted to 0.0753. Consider AAGATGCA, for which the binding signal (normalized occupancy) came to 0.0771. With CAACCGTG the figure was 0.079. With CTCGTCGA the figure was 0.0659; with CGTACTCA, 0.0817. With CGCATTGC the figure was 0.08; with ACGCGGAG, 0.076. Take AGTTGCGG: the binding signal (normalized occupancy) came to 0.0665. Take AGAGCCTG: the binding signal (normalized occupancy) worked out at 0.0676. With CCTGTCAG the figure was 0.0719; with CGTACAGC, 0.0733; with AGAAGCCA, 0.0721. For AACGAGAC, the binding signal (normalized occupancy) amounted to 0.075. With CAAAAGAA the figure was 0.0715; with GATTGATA, 0.0797; with CCGACCAA, 0.0687. With GGGGATCA the figure was 0.0794; with CCTTAACG, 0.0765; with CTTTTGGC, 0.0694. For AATCTTTG the value was 0.0726; for TGCGCACA, 0.0804. Regarding CGGACGAC, the binding signal (normalized occupancy) turned out to be 0.0716. Turning to AGCTGGCC, the binding signal (normalized occupancy) worked out at 0.0664. With ATGTGGCA the figure was 0.087. In the case of GCGTGGAC, the binding signal (normalized occupancy) amounted to 0.0976. With GAACCCTA the figure was 0.0781; with CAAGCTCG, 0.0644; with GACATACC, 0.0783. For CATTTGGG the value was 0.0756; for AGAAATAA, 0.0763. With CTTTAGTC the figure was 0.0713; with AGTGATGC, 0.075.

With ACTTGTCT, the binding signal (normalized occupancy) turned out to be 0.0716.

For the sequence GCGGGTAC, the binding signal (normalized occupancy) was found to be 0.0732.

GGCACGTA: the binding signal (normalized occupancy) was found to be 0.0814. With CAGCAAGG the figure was 0.0734. As to ATTCGACG, the binding signal (normalized occupancy) worked out at 0.0735. With CTAATTGA the figure was 0.0722; with CAGAACAG, 0.0724; with ACATTCGG, 0.0816. As to CGTTGCCC, the binding signal (normalized occupancy) was determined as 0.0707.

Turning to GAAGGCGC, the binding signal (normalized occupancy) came out at 0.0709. With GCTGACTA the figure was 0.0763; with CTCTTAAG, 0.0731.

As to ATAAGCTA, the binding signal (normalized occupancy) worked out at 0.074.

TCACCTGA: the binding signal (normalized occupancy) worked out at 0.0809.

Take CACAAGTA: the binding signal (normalized occupancy) was 0.0831.

For the sequence TACGCGTA, the binding signal (normalized occupancy) stood at 0.0797. With CTGCTCAC the figure was 0.0763; with CAAACCCC, 0.0805; with ACTATCGG, 0.0728. For ACTCCCAC the value was 0.08; for AATCCTTG, 0.079; for TCAATGGA, 0.0734.

For the sequence CTATCATA, the binding signal (normalized occupancy) came to 0.0872. For CGGGAGCA the value was 0.0676. Consider CAGAGCCG, for which the binding signal (normalized occupancy) was 0.0668. For ATCGACCC the value was 0.0797. For CATGAGCC the value was 0.0857; for TCGGCAGA, 0.0678; for AGAGGTGA, 0.0713.

Consider CGTGCACC, for which the binding signal (normalized occupancy) turned out to be 0.095.

With GTAGGGCA, the binding signal (normalized occupancy) was 0.0716. With ATGATTGA the figure was 0.0876.

On to CGCTTGAC, for which the binding signal (normalized occupancy) worked out at 0.0693. On to ATTAGGCC, for which the binding signal (normalized occupancy) turned out to be 0.0684. For AAAACGCA the value was 0.0753; for AAGATCCC, 0.0715; for TGGGCTAA, 0.0686.

Regarding CTAATAAG, the binding signal (normalized occupancy) was found to be 0.076.

In the case of GTCCTGCA, the binding signal (normalized occupancy) was determined as 0.0732.

For GGGGCGAA, the binding signal (normalized occupancy) was determined as 0.0746.

As to GTTCTACA, the binding signal (normalized occupancy) is 0.0827. For CGGTCGGA, the binding signal (normalized occupancy) was found to be 0.0734.
